{"source": "PubChem BioAssay AID686978", "about": "(National Center for Advancing Translational Sciences (NCATS), 2013)", "note": "“And” between values parts separate entries of the source, which are not always exact repeats. Equal values may be shown once. Screen size: about 420,000 compounds; about 64,000 (15%) were called active. The shares of active, inactive and inconclusive entries below differ from those in the screen. Calls come from the whole dose curve; as a rule, active = well fitted inhibition curve with a large enough effect; inconclusive = small, poorly fitted or top-dose-only effect; inactive = flat fitted curve, though single readings scatter. Potencies of inconclusive entries are left out as doubtful fits. % is set by controls: 0 for no effect and ±100 for the full control effect; potency is the fitted concentration of half-maximal effect; tags give direction and shape of the fitted curve."}
{"experiment": "qHTS for Inhibitors of human tyrosyl-DNA phosphodiesterase 1 (TDP1): qHTS in cells in absence of CPT; note: nearly all actives have a fitted effect of over 55% in size", "settings": "DT40 Tdp1-/- hTDP1 cells, no CPT, ATP luminescence, 48 h; activity change, negative = growth inhibition: at 46.2 µM (top of the series) unless noted", "procedure,_shortened": "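Luminescent ATP content (CellTiter-Glo) served as the growth readout. Knockout chicken DT40 cells expressing human TDP1 were exposed to compounds without camptothecin for a minimum 48 hr at 37 °C.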"}
{"smiles": "O=C(NCc1ccccc1)c1onc(CS(=O)(=O)c2ccccn2)c1C(=O)NCc1ccccc1", "Potency": "inconclusive [inhibitor, single point]"}
{"smiles": "COc1cccc(C(=O)N=c2sc3c(C)ccc(OC)c3n2C)c1", "Potency": "inconclusive [inhibitor, single point]"}
{"smiles": "COc1ccc(/C=N/n2cncn2)cc1COc1ccc(NC(C)=O)cc1", "Potency": "inconclusive [inhibitor, single point]"}
{"smiles": "CCCCOc1ccc(C(=O)NCC(=O)NCc2ccccn2)cc1", "Potency": "inconclusive [inhibitor, single point]"}
{"smiles": "C=CCN(C(=O)CSc1nc2ccsc2c(=O)n1Cc1ccc(C(=O)O)cc1)c1ccccc1", "Potency": "inactive"}
{"smiles": "O=C(Nc1cc(-c2nc3ccccc3o2)ccc1Cl)c1ccc(N2CCCCC2)c([N+](=O)[O-])c1", "Potency": "active: 18.4 µM"}
{"smiles": "CCOP(=O)(OCC)C(Nc1ccccc1)c1ccc2c(c1)OCO2", "note": "(centres undefined)", "Potency": "inconclusive [inhibitor, partial curve]"}
{"smiles": "CCOc1ccc(Nc2oc(-c3ccc(Cl)cc3)nc2C#N)cc1", "Potency": "active: 4.11 µM"}
{"smiles": "CCn1c(=O)sc2cc(NS(=O)(=O)c3ccc(F)c(C)c3)ccc21", "Potency": "active: 10.3 µM"}
{"smiles": "COc1cccc(-c2ccc(NC(=O)C3CCCN(CCCn4cccn4)C3)cc2)c1", "note": "(centres undefined)", "Potency": "inconclusive [inhibitor, single point]"}
{"smiles": "COc1cc(CNC(=O)Nc2nc(C(N)CCc3ccccc3)cs2)cc(OC)c1OC", "note": "(centres undefined)", "Potency": "inconclusive [inhibitor, single point]"}
{"smiles": "O=C(c1cc(-c2ccc(Cl)cc2)n(-c2ccc(Cl)cc2)n1)N1CCOCC1", "Potency": "inconclusive [inhibitor, single point]"}
{"smiles": "O=C(c1cc(COc2ccccc2)on1)N1CCCC(OCc2cccnc2)C1", "note": "(centres undefined)", "Potency": "inconclusive [inhibitor, partial curve]"}
{"smiles": "O=C(CCS(=O)(=O)c1cc(Br)cc2c1N(C(=O)C1CC1)CC2)NCc1ccc(Cl)cc1", "Potency": "inconclusive [inhibitor, single point]"}
{"smiles": "CN(C)CCOC1=Cc2ccccc2Sc2ccc(Cl)cc21", "Potency": "inconclusive [inhibitor, single point]"}
{"smiles": "CCOC(=O)C(=CNc1ccccc1N1CCOCC1)C(=O)OCC", "Potency": "inconclusive [inhibitor, single point]"}
{"smiles": "COc1ccccc1CN1CC2(CCN(C(=O)c3cc(C(F)(F)F)cc(C(F)(F)F)c3)CC2)C1", "Potency": "inconclusive [inhibitor, single point]"}
{"smiles": "COC(=O)COc1ccc(NC(=O)Cn2nc(-c3ccccc3)c3ccccc3c2=O)cc1", "Potency": "inactive"}
{"smiles": "Cc1ccsc1C(=O)N1CCCC(CCC(=O)N2CCN(c3ccccn3)CC2)C1", "note": "(centres undefined)", "Potency": "inconclusive [inhibitor, partial curve]"}
{"smiles": "CC(C)OCCCn1c(SCC(=O)N2CCc3ccccc32)nc2ccccc2c1=O", "Potency": "active: 11.6 µM"}
{"smiles": "COc1ccc(CCN2CCC(Nc3nc4ccccc4n3Cc3ccc(F)cc3)CC2)cc1", "Potency": "active: 16.4 µM and active: 2.66 µM and active: 7.31 µM"}
{"smiles": "CCC1(C)Cc2ccccc2-c2nc(NCCO)[nH]c(=O)c21", "note": "(centres undefined)", "Potency": "inconclusive [inhibitor, single point]"}
{"smiles": "O=C(COc1ccccc1)NC(=S)Nc1cccc([N+](=O)[O-])c1", "activity change, negative = growth inhibition": "inconclusive: -33.2% [inhibitor]"}
{"smiles": "CN(C)c1ccc(/C=C/c2ccnc3ccccc23)c(N)c1", "Potency": "active: 0.631 µM"}
{"smiles": "Cc1ccc(C2CC(c3ccccc3Cl)n3nc(N)nc3N2)cc1", "note": "(centres undefined)", "Potency": "inconclusive [inhibitor, partial curve]"}
{"smiles": "CCc1ccccc1N(C(=O)c1snc(C(N)=O)c1N)C(C(=O)NCC1CCCO1)c1ccc(C)o1", "note": "(centres undefined)", "Potency": "active: 10.3 µM"}
{"smiles": "Cc1ccc(-c2nc(SCCOc3ccccc3C)n3[nH]c(=O)cc3n2)cc1", "Potency": "active: 25.9 µM"}
{"smiles": "Cc1ccc(CCC(=O)Nc2nccs2)o1", "Potency": "inactive"}
{"smiles": "Cc1cc(NC(=O)c2ccccc2C)ccc1NC(=O)c1ccccc1Cl", "Potency": "inconclusive [inhibitor, single point]"}
{"smiles": "O=C(NCCNS(=O)(=O)c1ccccc1Cl)c1cc(OCC(F)(F)F)ccc1OCC(F)(F)F", "Potency": "inconclusive [inhibitor, partial curve]"}
{"smiles": "CC(=O)Nc1cc(OC(C)=O)c2nonc2c1OC(C)=O", "Potency": "active: 18.4 µM"}
{"smiles": "CN(C)C(=O)c1ccc(NC(=O)c2cccc(S(=O)(=O)N3CCCCCC3)c2)cc1", "Potency": "inconclusive [inhibitor, partial curve]"}
{"smiles": "CC(=O)N1CCN(c2ccnc3cc(Cl)ccc23)CC1", "Potency": "inactive"}
{"smiles": "COc1ccc(Cl)cc1NC(=O)c1cccc([N+](=O)[O-])c1O", "Potency": "active: 8.2 µM"}
{"smiles": "c1ccc(-c2nnc3ccc(N4CCCC4)nn23)cc1", "Potency": "inconclusive [inhibitor, single point]"}
{"smiles": "CC(CCc1ccccc1)NCc1cccc2ccccc12", "note": "(centres undefined)", "Potency": "inconclusive [inhibitor, single point]"}
{"smiles": "COc1ccc(C2c3c(n(C)c4ccccc34)C(=O)N2CC(=O)Nc2ccc(C)c(Cl)c2)cc1", "note": "(centres undefined)", "Potency": "inconclusive [inhibitor, single point]"}
{"smiles": "O=C1Nc2ccccc2C1=Nc1ccc(Br)cc1", "activity change, negative = growth inhibition": "inconclusive: -30.6% [inhibitor]"}
{"smiles": "COc1ccc2[nH]c3c(c2c1)CCN1C(=O)C(CC(=O)NCCC2=CCCCC2)C[C@H](C(=O)N2CCCCC2)[C@@]31C", "note": "(some centres undefined)", "Potency": "active: 18.4 µM"}
{"smiles": "C/C(=N\\NC(=S)NC(C)C)c1ccc2c(c1)OCCO2", "Potency": "active: 6.51 µM"}
{"smiles": "Cc1ccccc1NC(=O)CSc1ccc(-c2ccco2)nn1", "Potency": "inconclusive [inhibitor, partial curve]"}
{"smiles": "Cc1noc(C)c1COc1cccc(C(=O)Nc2ccc(Br)cc2F)c1", "Potency": "active: 6.51 µM"}
{"smiles": "C[C@H](CO)N1C[C@H](C)[C@@H](CN(C)Cc2ccc(-c3ccccc3)cc2)Oc2c(NS(=O)(=O)c3cn(C)cn3)cccc2C1=O", "Potency": "inconclusive [inhibitor, single point]"}
{"smiles": "COc1ccc(S(=O)(=O)N2CCCC(C(=O)NCCN3CCOCC3)C2)cc1C", "note": "(centres undefined)", "Potency": "inactive"}
